Laboratory results as given in the supplement of paper PMC4967469.
A lower IC50 marks a more sensitive line; a limit (>, <) means that the fit lies beyond the doses tested. AUC, from the same fit, is the share of area under the viability curve across the 256-fold dose range; the more sensitive the line, the further below 1. For part of these data: The top dose, if marked as inferred, was derived from the fitted curves, not read from the paper. For part of these data: Where an entry number is given, a second screen of the drug exists; the two often differ.

Assays:
Assay in all cases: Viability of human cancer cell lines after 72 h of drug (GDSC screen)
[1] = compound: C/C=C(/C)C(=O)O[C@H]1C(C)=C2[C@H]([C@@H]1OC(=O)CCCCCCC)[C@@](C)(OC(C)=O)C[C@H](OC(=O)CCC)[C@@]1(O)[C@H]2OC(=O)[C@@]1(C)O [Thapsigargin]; settings: top dose 0.512 µM; top dose inferred
Method: (§1)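 Human cancer cell lines in 384-well plates, medium with 10% serum, drug for 72 h over a 256-fold dose range (nine 2-fold or five 4-fold steps up to the top dose). Adherent lines were fixed and stained with the nucleic acid dye Syto60, suspension lines read with resazurin; signal relative to control wells, capped at 0 and 100%. One two-parameter sigmoid per drug and line, fitted in a mixed model over all curves with the slope shared within a line.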

[2] = compound: C=CC(=O)Nc1cc(-n2c(=O)ccc3cnc4ccc(-c5cn[nH]c5)cc4c32)ccc1C [QL-X-138]; settings: top dose 10.24 µM; top dose inferred
Method: as §1

[3] = compound: CCn1c(-c2nonc2N)nc2cnc(Oc3cccc(NC(=O)c4ccc(OCCN5CCOCC5)cc4)c3)cc21 [GSK269962A]; settings: top dose inferred
Method: as §1

[4] = compound: COc1cc(N2CCC(O)CC2)ccc1Nc1cc(Nc2ccccc2S(=O)(=O)C(C)C)c2cc[nH]c2n1 [MPS-1-IN-1]; settings: top dose 20 µM; top dose inferred
Method: as §1

[5] = compound: COc1cc(O)c2c(c1)/C=C/C[C@H](O)[C@H](O)C(=O)/C=C\C[C@H](C)OC2=O [(5Z)-7-Oxozeaenol]; settings: top dose 10 µM; top dose inferred
Method: as §1

[6] = compound: COc1cc2ncnc(-n3nc(-c4ccccn4)nc3N)c2cc1OC [CP466722]; settings: top dose 16 µM; top dose inferred
Method: as §1

[7] = compound: COc1nc(C)cnc1NS(=O)(=O)c1cccnc1-c1ccc(-c2nnco2)cc1 [Zibotentan]; settings: top dose 20 µM; top dose inferred
Method: as §1

[8] = compound: C[C@]1(c2nc3c(C(N)=O)cccc3[nH]2)CCCN1 [ABT-888]; settings: top dose 5 µM; top dose inferred
Method: as §1

[9] = compound: Cc1ccc(-c2c(C(=O)CCl)n(CCCO)c3ncnc(N)c23)cc1 [CMK]; settings: top dose 4 µM; top dose inferred
Method: as §1

[10] = compound: Cc1ccc(F)c(NC(=O)Nc2ccc(-c3cccc4[nH]nc(N)c34)cc2)c1 [ABT-869]; settings: top dose 1.024 µM; top dose inferred
Method: as §1

[11] = compound: Cc1cnc(-c2cnc(NCCNc3ccc(C#N)cn3)nc2-c2ccc(Cl)cc2Cl)[nH]1 [CHIR-99021]
Method: as §1

[12] = compound: Nc1ccn([C@@H]2O[C@H](CO)[C@@H](O)[C@@H]2O)c(=O)n1 [Cytarabine]; settings: top dose 2 µM
Method: as §1

[13] = compound: O=c1cc(-c2cccc3c2Sc2ccccc2S3)oc(N2CCOCC2)c1 [KU-55933]; settings: top dose 10 µM
Method: as §1

[14] = top dose 2.5 µM, screen: GDSC drug entry 127
[15] = top dose 5 µM, screen: GDSC drug entry 1192
[16] = top dose 2.56 µM, screen: GDSC drug entry 154
[17] = top dose 10 µM, screen: GDSC drug entry 1241, top dose inferred

Cell Line | AUC [1] | IC50 [1] [nM] | AUC [2] | IC50 [2] [nM] | AUC [3, 14] | IC50 [3, 14] [nM] | AUC [3, 15] | IC50 [3, 15] [nM] | AUC [4] | IC50 [4] [nM] | AUC [5] | IC50 [5] [nM] | AUC [6] | IC50 [6] [nM] | AUC [7] | IC50 [7] [nM] | AUC [8] | IC50 [8] [nM] | AUC [9] | IC50 [9] [nM] | AUC [10] | IC50 [10] [nM] | AUC [11, 16] | IC50 [11, 16] [nM] | AUC [11, 17] | IC50 [11, 17] [nM] | AUC [12] | IC50 [12] [nM] | AUC [13] | IC50 [13] [nM]
SU-DHL-4 (B-cell lymphoma, suspension) | 0.221 | 6.69 | 0.595 | 1080 | 0.981 | > 2500 | 0.997 | > 5000 | 0.974 | > 20000 | 0.872 | 5260 | 0.782 | 4860 | 0.997 | > 20000 | 0.997 | > 5000 | 0.782 | 1220 | 0.997 | > 1020 | 0.996 | > 2560 | 0.978 | > 10000 | 0.997 | > 2000 | 0.997 | > 10000
SU-DHL-16 (B-cell lymphoma, suspension) | 0.015 | < 2 | 0.164 | 94.4 | 0.935 | 2210 | 0.917 | 3740 | 0.873 | 10800 | 0.74 | 2400 | 0.974 | > 16000 | 0.996 | > 20000 | 0.985 | > 5000 | 0.979 | > 4000 | 0.996 | > 1020 | 0.996 | > 2560 | 0.996 | > 10000 | 0.863 | 1010 | 0.981 | > 10000
